Results reported in article PMC12820563.
Some of the results follow. The list includes weakly bound sequences.

molecular target: T1, MBP-FoxP3dN (UniProt Q99JB6); assay: PD-seq (MBP pull-down with sequencing); settings: 20 mM Tris-HCl pH 7.5, 100 mM NaCl, 1.5 mM MgCl2, 0.4 uM protein, 0.1 uM dsDNA library, 30 min, room temperature, amylose pull-down; high values mean tight binding; double strand, one strand shown
T1 sequence: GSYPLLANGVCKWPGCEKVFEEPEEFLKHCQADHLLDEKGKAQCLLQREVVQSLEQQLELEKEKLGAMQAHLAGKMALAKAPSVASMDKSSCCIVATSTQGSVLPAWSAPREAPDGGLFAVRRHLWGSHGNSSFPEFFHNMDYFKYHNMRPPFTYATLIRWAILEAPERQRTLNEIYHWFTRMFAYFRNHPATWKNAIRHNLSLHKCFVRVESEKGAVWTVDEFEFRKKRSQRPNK

Sequence	binding signal (RPM ratio (pull-down/input))
GATGATTGTTCTCCCAGCTGATGAATTTCCACACTCGAGTAAACAAATTTTCCTAATCTTTCTGTTCAAGCGCCATCTAC	0.354
GATGATTGTTCTCCCAGCTGATGAATTAACGGCCTCGAGTAAACAAATTTTCCTAATCTTTCTGTTCAAGCGCCATCTAC	0.443
GATGATTGTTCTCCCAGCTGATGAATTCTGTCCCTCGAGTAAACAAATTTTCCTAATCTTTCTGTTCAAGCGCCATCTAC	1.51
GATGATTGTTCTCCCAGCTGATGAATTATCGCTGTCGAGTAAACAAATTTTCCTAATCTTTCTGTTCAAGCGCCATCTAC	0.423
GATGATTGTTCTCCCAGCTGATGAATTTTAGGTCTCGAGTAAACAAATTTTCCTAATCTTTCTGTTCAAGCGCCATCTAC	0.401
GATGATTGTTCTCCCAGCTGATGAATTTCCTCGATCGAGTAAACAAATTTTCCTAATCTTTCTGTTCAAGCGCCATCTAC	0.209
GATGATTGTTCTCCCAGCTGATGAATTGTACATATCGAGTAAACAAATTTTCCTAATCTTTCTGTTCAAGCGCCATCTAC	0.885
GATGATTGTTCTCCCAGCTGATGAATTTCGGTCGTCGAGTAAACAAATTTTCCTAATCTTTCTGTTCAAGCGCCATCTAC	0.498
GATGATTGTTCTCCCAGCTGATGAATTAAACGGTTCGAGTAAACAAATTTTCCTAATCTTTCTGTTCAAGCGCCATCTAC	0.323
GATGATTGTTCTCCCAGCTGATGAATTGACCGAGTCGAGTAAACAAATTTTCCTAATCTTTCTGTTCAAGCGCCATCTAC	0.178
GATGATTGTTCTCCCAGCTGATGAATTGCGGACGTCGAGTAAACAAATTTTCCTAATCTTTCTGTTCAAGCGCCATCTAC	0.537
GATGATTGTTCTCCCAGCTGATGAATTCTTTGGATCGAGTAAACAAATTTTCCTAATCTTTCTGTTCAAGCGCCATCTAC	0.196
GATGATTGTTCTCCCAGCTGATGAATTGAGGCCCTCGAGTAAACAAATTTTCCTAATCTTTCTGTTCAAGCGCCATCTAC	0.84
GATGATTGTTCTCCCAGCTGATGAATTTCCCGGATCGAGTAAACAAATTTTCCTAATCTTTCTGTTCAAGCGCCATCTAC	0.158
GATGATTGTTCTCCCAGCTGATGAATTACACAACTCGAGTAAACAAATTTTCCTAATCTTTCTGTTCAAGCGCCATCTAC	0.854
GATGATTGTTCTCCCAGCTGATGAATTGTGGGTGTCGAGTAAACAAATTTTCCTAATCTTTCTGTTCAAGCGCCATCTAC	1.27

Sequence	binding signal (RPM ratio (pull-down/input))
GATGATTGTTCTCCCAGCTGATGAATTTCAGTATTCGAGTAAACAAATTTTCCTAATCTTTCTGTTCAAGCGCCATCTAC	0.896
GATGATTGTTCTCCCAGCTGATGAATTAACTTCCTCGAGTAAACAAATTTTCCTAATCTTTCTGTTCAAGCGCCATCTAC	0.246
GATGATTGTTCTCCCAGCTGATGAATTCCGTCTGTCGAGTAAACAAATTTTCCTAATCTTTCTGTTCAAGCGCCATCTAC	0.686
GATGATTGTTCTCCCAGCTGATGAATTTCGCTTATCGAGTAAACAAATTTTCCTAATCTTTCTGTTCAAGCGCCATCTAC	1.8
GATGATTGTTCTCCCAGCTGATGAATTCCGCACTTCGAGTAAACAAATTTTCCTAATCTTTCTGTTCAAGCGCCATCTAC	1.22
GATGATTGTTCTCCCAGCTGATGAATTAGTGTACTCGAGTAAACAAATTTTCCTAATCTTTCTGTTCAAGCGCCATCTAC	4.59
GATGATTGTTCTCCCAGCTGATGAATTTTTGTATTCGAGTAAACAAATTTTCCTAATCTTTCTGTTCAAGCGCCATCTAC	2.57
GATGATTGTTCTCCCAGCTGATGAATTTCCAGCGTCGAGTAAACAAATTTTCCTAATCTTTCTGTTCAAGCGCCATCTAC	0.389
GATGATTGTTCTCCCAGCTGATGAATTAGGTAGATCGAGTAAACAAATTTTCCTAATCTTTCTGTTCAAGCGCCATCTAC	0.385
GATGATTGTTCTCCCAGCTGATGAATTGCACCCATCGAGTAAACAAATTTTCCTAATCTTTCTGTTCAAGCGCCATCTAC	0.908
GATGATTGTTCTCCCAGCTGATGAATTCATCGAGTCGAGTAAACAAATTTTCCTAATCTTTCTGTTCAAGCGCCATCTAC	0.268
GATGATTGTTCTCCCAGCTGATGAATTCATCAGCTCGAGTAAACAAATTTTCCTAATCTTTCTGTTCAAGCGCCATCTAC	0.35
GATGATTGTTCTCCCAGCTGATGAATTGGGACAATCGAGTAAACAAATTTTCCTAATCTTTCTGTTCAAGCGCCATCTAC	0.597
GATGATTGTTCTCCCAGCTGATGAATTACGCTACTCGAGTAAACAAATTTTCCTAATCTTTCTGTTCAAGCGCCATCTAC	1.87
GATGATTGTTCTCCCAGCTGATGAATTGTAGTTGTCGAGTAAACAAATTTTCCTAATCTTTCTGTTCAAGCGCCATCTAC	2.31
